# From PubChem BioAssay AID900 (National Center for Advancing Translational Sciences (NCATS), 2007)
# Values joined by “and” are separate entries in the source; they are usually repeats but may differ in a detail not shown here. Identical values can stand only once. The campaign covered roughly 75,000 compounds. About 20 (0.03%) were called active. The shares of active, inactive and inconclusive entries below differ from those in the screen. Calls come from the whole dose curve; as a rule, active = well fitted inhibition curve with a large enough effect; inconclusive = small, poorly fitted or top-dose-only effect; inactive = flat fitted curve, though single readings scatter. Potencies beside an inconclusive call are fits to weak or partial responses and may not hold up.
# Target: Caspase-1 (Homo sapiens) (UniProt P29466)
# Test: qHTS Assay for Allosteric/Competitive Inhibitors of Caspase-1;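 for activity change, negative = inhibition: plate controls were vehicle for no effect and no substrate for full effect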
# Details: Caspase-1 enzyme, Ac-WEHD-AFC fluorogenic rate; activity change, negative = inhibition: at 57.5 µM (top of the series)
# Excerpt: NIH Molecular Libraries Screening Centers Network [MLSCN]
# NIH Chemical Genomics Center [NCGC]
# PI Name: Dr. James Wells,
# Dr. Enrique Perez-Paya, Dr.Janice Williams, Dr. Dennis Wolan, a person
# The caspases (Cysteine Aspartyl Protease) comprise a related family of 14 dimeric proteases that are critical mediators of apoptosis (programmed cell death) and inflammation. The caspases represent an important class of drug targets for stroke, ischemia, cancer and inflammatory diseases. […] One goal of this project was to identify compounds that act as allosteric inhibitors via stabilizing the procaspase form of the enzyme. Previous work in Well's laboratory has shown that such allosteric inhibitors can be identified and these act by binding at the dimer interface of enzyme (Hardy, Lam et al., 2004).
# The biochemical assay was configured using purified caspase 1 at a high enzyme concentration to promote formation of the homodimers and thus facilitate the identification of allosteric inhibitors. The overall goal was to identify reversible inhibitors with better drug-like properties than the currently available set of aspartyl-containing peptidomimetics that covalently bind the active site. Caspase 1 was assayed using the profluorescent substrate Ac-WEHD-AFC. After initiation of the assay with substrate the plates were rapidly read using an automated robotic system (Kalypsys, Inc.) to maintain consistent timing. A kinetic mode of detection was used where the initial rate was collected (estimated final product formation was ~10%). Compounds were screened as a concentration-titration series that ranged from 57 uM to 0.7 nM. Below is the protocol used for caspase 1.
# NCGC Assay Protocol Summary:
# Caspase 1 was prepared in buffer (50 mM HEPES pH 7.5, 50 mM KCl, 200 mM NaCl, 10 mM DTT, 0.1% CHAPS) at a concentration of 66.6 nM and 3 uL was dispensed to all wells using black solid Kalypsys 1536-well plates. 20 nL of DMSO containing compounds was added using a pin-tool (Kalypsys Inc.) to columns 5-48. Then 20 nL of DMSO solution from a control plate was added to columns 1-4. Controls were: Column 1, 16 point titration with each concentration in duplicate (1:1 dilutions in DMSO; final starting concentration was 57 uM) of the caspase 1 inhibitor Ac-WEHD-CHO (Alexis Biochemicals); Column 2, a 16 point titration with each concentration in duplicate of the free AFC fluorophore prepared in DMSO (Alexis Biochemicals), final starting was 40 uM; Column 3 neutral (DMSO only) control; Column 4: DMSO alone, to serve as a negative control (no substrate was added). Then 1 uL of 20 uM the substrate Ac-WEHD-AFC (Alexis Biochemicals) prepared in the same buffer was dispensed to all wells except columns 2 and 4 and the plates were immediately transferred (< 1 min) to the Viewlux. The plates were then exposed using 405 nm excitation/520 nm emission filters for 4 sec and read at 20 sec intervals for 3 min. Final enzyme concentration was 50 nM and the final substrate concentration was 5 uM.
# Concentration-response curves were fitted to the data calculated from slope of the linear regression of fluorescent intensity versus time (the rate). The concentration-effect curves were then classified based on curve quality (r2), response magnitude and degree of measured activity. […] Inconclusive compounds had appreciable concentration-dependent effects on both the measured rate and the interpolated basal fluorescence intensity at the start of the reaction but where the basal fluorescent intensity was marginal (e.g. < 10-fold). Inconclusive compounds also encompass highly fluorescent compounds (>100-fold increases in fluorescent intensities values relative to controls) where artificial concentration-dependent decreases in the rate occurred at high compound concentrations due to fluorescent interferences.
# Keywords: Caspase 1, proteases, profluorescent, MLSMR, MLSCN, NIH Roadmap, qHTS, NCGC
# Potency is the fitted concentration of half-maximal effect; tags give direction and shape of the fitted curve or compound fluorescence and quenching.
SMILES,Potency,"activity change, negative = inhibition"
CN(N=O)c1cc(O)ccc1O,"inconclusive: 31.6 µM [inhibitor, single point]",–
Cn1ncnc2c(=O)n(C)c(=O)nc1-2,active: 12.6 µM,–
CCNCC1(c2ccc(OC)c(OC)c2)CCCC1,"inconclusive: 39.8 µM [inhibitor, single point]",–
O=C1CS[C@@H](c2ccccc2Cl)c2cc(Cl)ccc2N1,"inconclusive: 39.8 µM [inhibitor, partial curve]",–
CN1C[C@H](C(=O)N[C@@]2(C)O[C@@]3(O)[C@H]4CCCN4C(=O)[C@@H](Cc4ccccc4)N3C2=O)C=C2c3cccc4[nH]cc(c34)C[C@@H]21,–,inactive: -16.2% [at 11.5 µM]
CN(C)CC/C=C1\c2ccccc2Sc2ccc(Cl)cc21,"inconclusive: 25.1 µM [inhibitor, single point]",–
CC(C)(O)[C@H]1[C@H]2OC(=O)[C@@H]1[C@]1(O)C[C@H]3O[C@]34C(=O)O[C@H]2[C@]14C (tested in a mixture with another compound),inactive,–
COc1ccccc1N1CCN(Cc2ccc(Br)s2)CC1,–,inconclusive: -16.8% [inhibitor]
Cc1c2ccncc2c(C)c2c1[nH]c1ccccc12,"inconclusive: 12.6 µM [inhibitor, partial curve]",–
CC12CCC(=O)C=C1CCC1C2CCC2(C)C(O)CCC12 (centres undefined),inactive,–
O=C1NC(=O)C2(Cc3ccccc3N3CCCC32)C(=O)N1c1ccc(Cl)cc1 (centres undefined),"inconclusive: 31.6 µM [inhibitor, partial curve]",–
N#CCCC#N,–,inconclusive: -15.5% [inhibitor]
O=C(c1cc2nc(-c3ccccc3)cc(-c3ccccc3)n2n1)N1CCC2(CC1)OCCO2,"inconclusive: 25.1 µM [inhibitor, partial curve]",–
CCC(COC(=O)c1cc(OC)c(OC)c(OC)c1)(c1ccccc1)N(C)C (centres undefined),inactive,–
O=C1NC(=O)C2(Cc3ccccc3N3CCCC32)C(=O)N1c1cccc(Cl)c1 (centres undefined),"inconclusive: 25.1 µM [inhibitor, partial curve]",–
COCCCNC(=O)c1c(NC(=O)c2ccco2)n(Cc2ccccc2)c2nc3ccccc3nc12,"inconclusive: 20 µM [inhibitor, partial curve]",–
COc1cc(CNC(=O)CCCC/C=C\C(C)C)ccc1O,"inconclusive: 15.8 µM [inhibitor, single point]",–
CN(C)C(=O)Nc1ccc(Cl)cc1,inactive,–
O=C(c1ccc(CS(=O)(=O)c2ccccc2)o1)N1CCC2(CC1)OCCO2,inactive,–
ClC=C(Cl)Cl,"inconclusive: 39.8 µM [inhibitor, single point]",–
COc1ccc2c(c1)c(CCN1CCOCC1)c(C)n2C(=O)c1cccc(Cl)c1Cl,inactive,–
Cc1ccc(C2(O)CC(C)N(C)CC2C)cc1 (centres undefined),inactive,–

SMILES,Potency,"activity change, negative = inhibition"
CC1CN=C(Nc2cccc3ccccc23)S1 (centres undefined),"inconclusive: 31.6 µM [inhibitor, partial curve]",–
CC1=CC(=O)c2c(O)cccc2C1=O,"inconclusive: 12.6 µM [inhibitor, partial curve] and inconclusive: 31.6 µM [inhibitor, partial curve]",–
COc1ccc2c(c1)CC1(CN2C)C(=O)NC(=O)N(CCc2ccccc2)C1=O (centres undefined),"inconclusive: 25.1 µM [inhibitor, partial curve]",–
C[C@H](N)[C@H](O)c1ccc(O)c(O)c1,inactive,–
ClC(Cl)(Cl)c1ccccc1,–,inconclusive: -17.2% [inhibitor]
COc1cc2c(cc1OC)-c1c(OC)c(OC)c(C=O)c3c1[C@H](C2)N(C)CC3,"inconclusive: 7.94 µM [inhibitor, full curve]",–
Oc1ccc([C@H](O)[C@@H]2CCCCN2)cc1O,–,inactive: 5.76% [at 11.5 µM]
O=C1C=CC(=O)c2c(O)cccc21,active: 20 µM,–
CCCN(CCC)[C@@H]1CCc2ccc(O)cc2C1,"inconclusive: 39.8 µM [inhibitor, single point]",–
Cc1noc(C(=O)Nc2sc3c(c2C#N)CCC3)c1Cl,"inconclusive: 39.8 µM [inhibitor, partial curve]",–
Cc1ccc(N)cc1N,"inconclusive: 31.6 µM [inhibitor, partial curve]",–
N#CCCCC[N+]12CN3CN(CN(C3)C1)C2,–,inactive: 2.19% [at 11.5 µM]
COc1cc(C=C(C#N)C#N)cc(O)c1O,inactive,–
O=C(c1ccc2nc(-c3ccco3)c(-c3ccco3)nc2c1)N1CCC2(CC1)OCCO2,"inconclusive: 25.1 µM [inhibitor, partial curve]",–
Cc1nc2ccc(Nc3nc4cc(S(=O)(=O)N5CCOCC5)ccc4o3)cc2s1,"inconclusive: 31.6 µM [inhibitor, single point]",–
CC[C@]1(O)CC(O[C@@H]2CC(N(C)C)C(O)C(C)O2)c2c(cc3c(c2O)C(=O)c2c(O)ccc(O)c2C3=O)C1C(=O)OC (some centres undefined),"inconclusive: 25.1 µM [inhibitor, single point]",–
COc1ccc2[nH]c3c(c2c1)CCN=C3C,"inconclusive: 15.8 µM [inhibitor, partial curve]",–
Cc1o[nH]c(=O)c1C[C@@H](N)C(=O)O,inactive,–
C[C@]1(C(=O)O)[C@@H]2CC[C@@H](O2)[C@@]1(C)C(=O)O,inactive,–
CCCCCCCCCc1ccc(OCCOCCOCCOCCOCCOCCOCCOCCOCCO)cc1,"inconclusive: 31.6 µM [inhibitor, single point]",–
COc1cc2nc(CN3CC=C(c4ccccc4)CC3)[nH]c(=O)c2cc1OC,"inconclusive: 39.8 µM [inhibitor, single point]",–
C[C@@H]1CC[C@@]2(OC1)O[C@H]1[C@@H](O)[C@H]3[C@@H]4CC[C@H]5C[C@@H](O[C@@H]6O[C@H](CO)[C@H](O[C@@H]7O[C@H](CO)[C@@H](O)[C@H](O[C@@H]8OC[C@@H](O)[C@H](O)[C@H]8O)[C@H]7O[C@@H]7O[C@H](CO)[C@@H](O)[C@H](O[C@@H]8O[C@H](CO)[C@@H](O)[C@H](O)[C@H]8O)[C@H]7O)[C@H](O)[C@H]6O)[C@H](O)C[C@]5(C)[C@H]4CC[C@]3(C)[C@H]1[C@@H]2C,inactive,–
